# Results: PMC7564666
# Protein sequences, listed by entry. Tags and fused reporters are not part of them.
# UniProt Q9UKV8: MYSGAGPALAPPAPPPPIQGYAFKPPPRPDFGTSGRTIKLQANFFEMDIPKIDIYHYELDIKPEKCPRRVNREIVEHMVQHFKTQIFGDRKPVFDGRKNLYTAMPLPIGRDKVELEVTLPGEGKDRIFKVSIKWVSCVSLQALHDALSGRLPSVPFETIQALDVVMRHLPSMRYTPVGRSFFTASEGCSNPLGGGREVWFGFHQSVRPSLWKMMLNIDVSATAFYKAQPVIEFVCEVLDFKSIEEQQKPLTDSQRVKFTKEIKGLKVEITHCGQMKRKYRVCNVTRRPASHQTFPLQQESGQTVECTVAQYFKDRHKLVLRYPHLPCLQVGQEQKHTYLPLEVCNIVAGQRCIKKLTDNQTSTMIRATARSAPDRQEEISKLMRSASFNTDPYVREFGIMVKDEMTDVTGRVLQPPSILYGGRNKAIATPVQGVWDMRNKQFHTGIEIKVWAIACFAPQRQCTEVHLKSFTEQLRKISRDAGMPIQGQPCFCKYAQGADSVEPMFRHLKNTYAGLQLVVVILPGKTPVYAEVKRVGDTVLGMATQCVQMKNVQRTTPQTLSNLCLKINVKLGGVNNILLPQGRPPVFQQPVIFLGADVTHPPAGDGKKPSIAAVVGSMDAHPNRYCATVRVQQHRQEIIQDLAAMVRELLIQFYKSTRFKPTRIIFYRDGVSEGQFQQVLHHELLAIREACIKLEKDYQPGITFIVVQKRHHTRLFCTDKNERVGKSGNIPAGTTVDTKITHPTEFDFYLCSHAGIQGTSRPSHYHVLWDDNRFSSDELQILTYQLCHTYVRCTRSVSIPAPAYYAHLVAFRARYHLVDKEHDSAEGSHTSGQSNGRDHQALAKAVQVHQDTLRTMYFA
# Substitutions are numbered along the chain they refer to. Results are given in words; binding and its absence hold for the method and conditions named. For some assays here: Binding seen in cells or lysates may run through a third protein. Some binding calls cover weakened binding; strength is not graded here. Tags and fused reporters may be left off the sequences shown.
# What was measured:
# [1] = biological target: T1, GST-LASP1 LIM domain (residues 1–60) (human) (UniProt Q14847); experiment: pull-down; direct binding: 1.5 nmol GST-LASP1, its domains or its phospho-mutants on glutathione-agarose beads with 100–200 ng of purified recombinant Ago2, 2 h at 4 °C, washed with lysis buffer; Western blot; both purified
# T1 sequence: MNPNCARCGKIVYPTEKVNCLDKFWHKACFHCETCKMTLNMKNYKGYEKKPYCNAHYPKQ
# [2] = biological target: T2, GST-LASP1 S146A/Y171D (human) (UniProt Q14847); experiment: as above
# T2 sequence: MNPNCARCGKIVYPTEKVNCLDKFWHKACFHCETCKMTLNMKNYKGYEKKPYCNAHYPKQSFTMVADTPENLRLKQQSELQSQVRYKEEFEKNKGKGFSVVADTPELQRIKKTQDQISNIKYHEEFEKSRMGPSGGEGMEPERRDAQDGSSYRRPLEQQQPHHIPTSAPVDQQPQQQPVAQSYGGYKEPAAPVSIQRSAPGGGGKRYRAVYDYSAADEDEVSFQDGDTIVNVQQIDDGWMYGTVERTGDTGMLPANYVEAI
# [3] = biological target: T3, GST-LASP1 S146A/Y171F (human) (UniProt Q14847); experiment: as above
# T3 sequence: T2 sequence with D171F
# [4] = biological target: T4, GST-LASP1 S146D/Y171F (human) (UniProt Q14847); experiment: as above
# T4 sequence: T2 sequence with A146D, D171F
# [5] = biological target: T5, GST-LASP1 Y171D (human) (UniProt Q14847); experiment: as above
# T5 sequence: T2 sequence with A146S
# [6] = biological target: T6, GST-LASP1 (full length LIM and SH3 Protein 1, residues 1–261) (human) (UniProt Q14847); experiment: pull-down; 1.5 nmol GST-LASP1 or its domains on glutathione-agarose beads with 1 mg of 231S total protein lysate, 2 h at 4 °C, washed with lysis buffer (100 mM NaCl, 50 mM Tris pH 8.0, 0.1% deoxycholate, 0.1% IGEPAL CA-630, 5 mM EDTA); Western blot; only the target purified
# T6 sequence: T2 sequence with A146S, D171Y
# [7] = biological target: T1, GST-LASP1 LIM domain (residues 1–60) (human); experiment: as above
# [8] = biological target: T7, GST-LASP1 SH3 domain (residues 200–261) (human) (UniProt Q14847); experiment: as above
# T7 sequence: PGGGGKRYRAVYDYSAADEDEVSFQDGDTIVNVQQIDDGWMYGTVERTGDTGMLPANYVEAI
binding [1],binding [2],binding [3],binding [4],binding [5],binding [6],binding [7],binding [8],Substance
binds,binds,binds,binds weakly,binds,–,–,–,purified recombinant Ago2 (from UniProt Q9UKV8 1-859)
–,–,–,–,–,binds,binds,binds,"argonaute 2 (Ago2), endogenous (from UniProt Q9UKV8 1-859)"
